Measured values: the BET-seq Pho4 binding data (Le et al. 2018)
This is one part of the list. The energies were worked out here from pooled read counts, against the library average; single values are noisy.

These sequences were tested against T1, Pho4 (S. cerevisiae) (UniProt P07270) (assay: relative binding free energy (BET-seq); higher = weaker binding). Conditions: reference: library average.
T1 sequence: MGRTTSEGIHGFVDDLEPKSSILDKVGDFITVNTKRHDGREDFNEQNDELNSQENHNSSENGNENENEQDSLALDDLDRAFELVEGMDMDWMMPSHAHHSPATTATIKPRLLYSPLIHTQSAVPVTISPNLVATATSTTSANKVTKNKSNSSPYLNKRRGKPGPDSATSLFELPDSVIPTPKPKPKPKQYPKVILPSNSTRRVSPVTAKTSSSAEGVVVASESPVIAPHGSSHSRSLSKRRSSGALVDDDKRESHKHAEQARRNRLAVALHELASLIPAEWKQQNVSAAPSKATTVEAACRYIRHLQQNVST

Row | Sequence | relative binding free energy [kcal/mol]
1 | GTGGTCACGTGTGATA | 0.29
2 | TCTGTCACGTGAATTT | 0.37
3 | GGTATCACGTGTCTGC | 0.22
4 | TCGGTCACGTGTGATG | 0.11
5 | TATATCACGTGAATTT | 0.36
6 | ATTAACACGTGGGTCG | -0.11
7 | GTCGACACGTGGGTTT | 0.05
8 | ATCTACACGTGCGGGG | 0.17
9 | GTTGTCACGTGTCTGT | 0.1
10 | GGCAGCACGTGAGTAG | 0.36
11 | TTTGTCACGTGTCTCT | 0.14
12 | TGGCTCACGTGGGGCC | 0.11
13 | TAAGTCACGTGCGGAA | 0.2
14 | ATAAGCACGTGCGTTT | -0.07
15 | AGGGCCACGTGTTGAT | -0.15
16 | GAGTGCACGTGAGGTG | 0.23
17 | AGGGGCACGTGAAACT | 0.27
18 | ATTATCACGTGGTATT | 0.06
19 | TAAAGCACGTGTCGTG | -0.12
20 | TCGTGCACGTGGACGG | -0.1
21 | AGGGCCACGTGGGAAT | -0.12
22 | AGAGTCACGTGTATTG | 0.18
23 | GGTGACACGTGGGATG | -0.04
24 | ACATGCACGTGTTTGT | -0.07
25 | TAAATCACGTGTGTCG | 0.15

Row | Sequence | relative binding free energy [kcal/mol]
26 | CGTTGCACGTGGTGAG | 0.03
27 | TTAGGCACGTGAGACT | 0.09
28 | ATGTACACGTGGATGA | 0.16
29 | TGTTACACGTGTAGAT | 0.23
30 | GTGTTCACGTGGTGAC | 0.35
31 | TTTTTCACGTGTGATC | 0.36
32 | GCGTTCACGTGGTAGC | 0.35
33 | GTATGCACGTGTGACG | -0.03
34 | CTCGTCACGTGGAGTT | 0.17
35 | AATTTCACGTGAGGCG | 0.36
36 | TAGAGCACGTGGCGAT | -0.15
37 | AGGATCACGTGAAGCT | 0.44
38 | GATTACACGTGAGGAT | 0.33
39 | AGGATCACGTGTGTTA | 0.01
40 | TTGCTCACGTGTTAAG | 0.28
41 | CATTACACGTGAGGTT | 0.24
42 | AAGGGCACGTGGCAGA | -0.09
43 | CTAGGCACGTGGGGTG | -0.23
44 | AGTATCACGTGTGCAG | 0.17
45 | GGTCGCACGTGGTGCG | -0.12
46 | GTATTCACGTGTCATT | 0.38
47 | CCGGTCACGTGATGTG | 0.21
48 | CGGATCACGTGGGGTG | -0.1
49 | ATGCTCACGTGAGGGG | 0.34
50 | GGACACACGTGGGGTG | -0.11

Row | Sequence | relative binding free energy [kcal/mol]
51 | TGTTGCACGTGGTCAG | -0.15
52 | ATGGCCACGTGGGCGG | -0.23
53 | GGCCTCACGTGTTTGG | 0.19
54 | CTCGTCACGTGTGGTT | 0.05
55 | GGTTGCACGTGGGTAA | -0.08
56 | ATTTACACGTGAGGGA | 0.25
57 | AGTTTCACGTGTCTAG | 0.14
58 | AGATGCACGTGTGACG | 0.07
59 | TCTTCCACGTGGTGGT | -0.13
60 | ACAGGCACGTGGTAGT | -0.18
61 | TTCATCACGTGAGATG | 0.28
62 | GGCATCACGTGGGGTG | -0.09
63 | ATGGCCACGTGTGATT | 0.15
64 | TAGGACACGTGGAGTA | -0.07
65 | TCGATCACGTGGTTAT | 0.18
66 | GTTTGCACGTGCAGGG | 0.1
67 | TGGTACACGTGTTAAA | 0.15
68 | TATTTCACGTGCGGTC | 0.38
69 | CTGTACACGTGTGTGT | 0.08
70 | ATGGACACGTGGTTGC | 0
71 | CGTTTCACGTGTATGT | 0.16
72 | TGGAACACGTGTTGCG | 0.11
73 | TGGGGCACGTGAGAAT | 0.28
74 | GGGCGCACGTGGCGTC | -0.1
75 | TGTTGCACGTGAATAA | 0.13

Row | Sequence | relative binding free energy [kcal/mol]
76 | ATTATCACGTGTCAGT | 0.32
77 | CTAATCACGTGGGCGG | 0.04
78 | TAAGTCACGTGGATGA | 0.1
79 | AGAGACACGTGGGCTG | -0.12
80 | CTATTCACGTGTATGT | 0.19
81 | TTGATCACGTGGTATC | 0.11
82 | AGTCACACGTGCGGTG | 0.03
83 | ATTCGCACGTGTGATT | -0.08
84 | GTTAACACGTGTTGTC | 0.23
85 | CGTTTCACGTGGGCTT | 0.24
86 | ATACGCACGTGCGGGG | -0.18
87 | TTGAGCACGTGAACGT | 0.21
88 | ATTTACACGTGTTCTT | 0.12
89 | AGTAGCACGTGAAGAG | 0.27
90 | GCTGGCACGTGATGGT | 0.07
91 | AGATCCACGTGGGTTG | -0.11
92 | TGGGGCACGTGTCAGT | -0.11
93 | GTATGCACGTGTGCGA | -0.04
94 | ATGTACACGTGATATG | 0.02
95 | TTCCGCACGTGAGTGT | 0.12
96 | ACGTACACGTGGGTTA | -0.03
97 | TAGGGCACGTGCTGGG | -0.13
98 | ATAGTCACGTGGACGG | 0.2
99 | ATATACACGTGTGGAG | 0
100 | AGTTACACGTGTGTAG | 0.11

Row | Sequence | relative binding free energy [kcal/mol]
101 | GGGGCCACGTGATATG | 0.03
102 | TGTCTCACGTGGGACG | 0.13
103 | GTTGCCACGTGGTGGA | -0.02
104 | TTTAACACGTGTTTAG | 0
105 | GAAAGCACGTGGGTCT | 0.03
106 | GGGTGCACGTGTCTGT | 0.07
107 | GGTGGCACGTGGTGTG | -0.09
108 | GTTCGCACGTGGGTAG | -0.22
109 | GTAATCACGTGGAGGA | 0.11
110 | CTTGCCACGTGAGTGT | 0.18
111 | TTGAGCACGTGGGTTT | -0.18
112 | CTTGTCACGTGACGGG | 0.24
113 | TTCATCACGTGTGGGT | 0.16
114 | GCTGTCACGTGCGGGC | 0.15
115 | TAGTTCACGTGTTTAT | 0.27
116 | ATTTACACGTGAAGTG | 0.32
117 | GTCGTCACGTGGTCTT | 0.01
118 | GAGGTCACGTGGGACA | 0.16
119 | CATGTCACGTGATTTA | 0.25
120 | GACGGCACGTGGGTAT | -0.19
121 | CTGGACACGTGTTTTA | 0.03
122 | TAAGTCACGTGTTATA | 0.16
123 | TGTTACACGTGCTGGT | 0.02
124 | GTTTTCACGTGTAGTA | 0.28
125 | TTTTGCACGTGAGTGT | 0.17

Row | Sequence | relative binding free energy [kcal/mol]
126 | GAGGTCACGTGGAGAT | 0.21
127 | TTGTTCACGTGGGGAT | 0.22
128 | ATGAACACGTGCGTGG | 0.08
129 | GTGTGCACGTGTGTTA | 0.11
130 | GGAAACACGTGTTGTA | 0
131 | CGGTACACGTGCGGTT | 0.08
132 | AGATTCACGTGGTTTA | 0.19
133 | CGTGGCACGTGTGATA | -0.03
134 | TATGCCACGTGTAATG | 0.16
135 | AGGGACACGTGCTATG | 0
136 | AGTTGCACGTGTTATA | 0
137 | TTATACACGTGAATGT | 0.25
138 | ATGTGCACGTGGCGTA | -0.12
139 | TGAATCACGTGTGATT | 0.24
140 | TGTGGCACGTGCATCG | -0.24
141 | ATTGTCACGTGTAGTG | 0.18
142 | CGTGCCACGTGGGTTT | -0.21
143 | TATTTCACGTGGGAAA | 0.15
144 | GCATGCACGTGGGTAG | -0.22
145 | TGCTGCACGTGTATAT | -0.06
146 | GTTGGCACGTGGAATA | 0.05
